Results reported in the supplement of paper PMC3334620.
In all, about 33,000 sequences were measured (“E-score (-0.5 to 0.5)”: median about -0.054, highest 2% from about 0.39 on). The list shows a part of the results.

Target: Ylr278c (UniProt Q05854)
Assay: PBM E-score (8-mer binding enrichment) (E-score (-0.5 to 0.5)); higher = stronger / more preferred TF binding; most listed sequences are background and not binding sites
Conditions: protein concentration: 200 nM; construct: GST-DNA-binding domain
How it was run: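 Detection of bound protein used fluorescent anti-GST, with scans normalised by masliner. The proteins were GST-tagged yeast transcription factors applied at about 100-200 nM to universal all-10-mer Agilent arrays made double-stranded by primer extension. Each ungapped eight-base word, pooled with its reverse complement, was scored with an E-score from the Universal PBM Analysis Suite.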

| Sequence | PBM E-score |
| --- | --- |
| ATGTCAGG | -0.0405 |
| CCCGAGGA | 0.061 |
| CGACGCAG | 0.0351 |
| TCCCGTAA | 0.103 |
| AGAGAAAG | -0.214 |
| AACAGCTG | -0.276 |
| AACTGCAC | -0.0764 |
| GCTGAAGA | -0.104 |
| CAGCTACC | -0.2 |
| CAATCCGG | 0.393 |
| ATTGCTCA | -0.162 |
| ATTTGCTC | 0.0683 |
| AGATTGTG | -0.0989 |
| AAGACAAA | -0.0701 |
| CAGCGGAC | 0.257 |
| TAAAGGTA | -0.184 |
| CTTTGATC | 0.0241 |
| CACTAAAG | -0.169 |
| ATACCTCA | -0.182 |
| ATTACAAC | -0.00851 |
| CTGGATTC | -0.00018 |
| ACTTCCTC | -0.0484 |
| CAGCCCTG | -0.227 |
| AGCTGCCA | -0.142 |

| Sequence | PBM E-score |
| --- | --- |
| CAAACTAC | -0.147 |
| GCTCCCAC | -0.101 |
| CGTTCCGC | 0.342 |
| CGCAACAG | 0.086 |
| CCCACTTA | 0.0183 |
| CCAGATCG | -0.0308 |
| ATTTTCAA | 0.0536 |
| ACATAGAA | -0.03 |
| CTTAAATC | 0.0232 |
| TCAAGTAA | -0.204 |
| GCGTTCAA | -0.169 |
| ATAAGCCG | 0.225 |
| CTCGTTCA | -0.126 |
| CCAGTTAC | -0.189 |
| ATCCCAGG | 0.0937 |
| CCTAAAAA | -0.0677 |
| TGGCAAAA | -0.053 |
| ACAATTAT | 0.0831 |
| ATTTGTGG | -0.0517 |
| ACCAGACT | -0.261 |
| ACGAAGTG | -0.182 |
| ACAGCCTA | -0.137 |
| ATCAACTG | -0.0057 |
| AAGAGGTC | -0.0926 |

| Sequence | PBM E-score |
| --- | --- |
| GCCGTTAA | 0.0207 |
| ACATAGCG | 0.0164 |
| CTTTGCAC | -0.203 |
| CAGGAGAC | -0.0772 |
| GCATCCTA | -0.0856 |
| GAAGAGCC | 0.149 |
| AGTCCGTA | 0.328 |
| CCCCTATC | -0.14 |
| ACCGCACG | -0.155 |
| ACTCGCAC | -0.0401 |
| ATATAGTG | -0.0658 |
| CCCGTCGG | 0.372 |
| GTTCACTA | -0.194 |
| CAATTGCG | 0.0389 |
| AATGTTCC | 0.0437 |
| AGGTCATC | 0.00667 |
| GCCCCAAC | 0.0493 |
| ACCCTGAC | -0.182 |
| ATTCGTCA | -0.189 |
| GGATCTGA | 0.00665 |
| AGTATCTA | -0.166 |
| CCTTAGGC | -0.27 |
| AGTGTGCG | 0.0226 |
| ATGGTGTC | -0.134 |

| Sequence | PBM E-score |
| --- | --- |
| ACGATTCC | 0.0208 |
| CAATGGGA | 0.125 |
| ATGGTATC | 0.00012 |
| GTTATTGA | -0.148 |
| CGCCTAGA | -0.0191 |
| CATAGGCA | -0.244 |
| GGGAAGTA | 0.00224 |
| TCCCCGAA | 0.357 |
| GGTCCTAA | 0.00859 |
| CCGCTGTA | 0.171 |
| CGCCCACG | 0.123 |
| CAATCGCA | -0.0422 |
| ACGACTCA | -0.168 |
| GTCACTTA | -0.0522 |
| ATGGGCCG | 0.168 |
| TTAATTAA | -0.226 |
| GACGCATC | 0.0416 |
| AAGATTAT | -0.019 |
| CCGGGTCC | 0.316 |
| TAATACAA | 0.0634 |
| GATTATTA | 0.0912 |
| AATTTAGA | -0.061 |
